In PubChem BioAssay AID1963576 (National Center for Advancing Translational Sciences (NCATS), 2024):
Out of some 46,000 compounds screened, about 60 (0.1%) were called active. Another 3% or so got no clear call; they are omitted. The call rests on the fitted dose curve; in most records, active means well fitted inhibition curve with a large enough effect; inconclusive means small, poorly fitted or top-dose-only effect; inactive means no such curve, though single readings can be large or run the other way. Some of the results follow.

Assay: Primary qHTS assay for Inhibitors of ovarian cancer metastasis using an organotypic tumor microenvironment (TME) model. Further: nearly all actives have a fitted effect of over 65% in size.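 On activity change, negative = inhibition: plate controls were DMSO wells for no effect and tomatine positive control wells for full effect.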
Conditions: SKOV3ip1-GFP adhesion/invasion on 3D omental model, fluorescence; series mostly up to 45.8 µM; activity change, negative = inhibition: at the top concentration
Summary of the method: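 Primary human omental fibroblast/mesothelial 3D culture pre-formed 48 h. SKOV3ip1-GFP cells added with compounds (0.36-46 umol/L), incubated 2 h RT/16 h 37 C, fixed; GFP cells quantified at 488/509 nm.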

Activity change, negative = inhibition, inactive:
CCn1cc2nc(SCC(=O)Nc3ccccc3C(F)(F)F)n(Cc3ccc(C)cc3)c(=O)c2n1 4.24%
CCCCN(CC)CCCNC(=O)c1nn(C)c2c1CSc1ccccc1-2 4.25%
Cc1ccccc1C(=O)n1nc(-c2cccnc2)nc1NCc1ccccc1 -18.7%
COc1ccc(C2CC(=O)c3cc(-c4nc(-c5ccc(Cl)cc5)cs4)c(=O)[nH]c3C2)cc1OC (stereo unspecified) 1.75%
CC1Cc2ccccc2N1S(=O)(=O)c1nnc(NC(=O)c2ccccc2)s1 (stereo unspecified) 4.3%
CC(C)Oc1ccc(-c2nc3c(C#N)c[nH]n3c2NC2CCCCC2)cc1 0.251%
CCOc1cc(N2CCC(O)CC2)ccc1Nc1ncc2c(n1)N(C)c1ccccc1C(=O)N2C 3.9%
COC(=O)c1ccc(C(=O)OC)c(NC(=O)c2ccc(-c3ccccc3)s2)c1 1.62%
COc1ccccc1CNC(=O)c1ccc2nc(CCc3ccccc3)oc2c1 4.97%
COc1ccc(Cn2c(=O)c3cccnc3n(Cc3cccc(F)c3)c2=O)cc1 6.37%
CCOC(=O)c1c(C)oc2ncnc(Nc3ccc(OC)c(OC)c3)c12 -7.48%
COc1cccc(-c2nc(S(=O)(=O)c3ccc(C)cc3)c(N3CCCCC3)o2)c1 -1.46%
O=C(CSc1ncc(S(=O)(=O)c2ccc(Cl)cc2)c(=O)[nH]1)Nc1cccc(C(F)(F)F)c1 -5.96%
Cc1cccc(C)c1NC(=O)c1sc(-n2nc(C)c(Cc3ccccc3)c2C)nc1C -11.5%
CCOC(=O)c1ccccc1NC(=O)CSc1nccn1Cc1ccco1 2.35%
CC(C)Oc1ccc(C(=O)N(Cc2ccco2)Cc2cccs2)cc1 -3%
COc1ccccc1NC(=O)c1c(C)cc(C)nc1SCC(=O)c1ccc(Cl)cc1 3.14%
CCCS(=O)(=O)NCCc1sc2nc(-c3ccc(F)cc3)nn2c1C 3.02%
Cn1c(=O)[nH]c2cc(-c3noc(-c4ccc(C#N)cc4)n3)ccc21 -6.09%
Cc1cc(C)n(-c2nnc(Nc3ccc(C)c(Cl)c3)c3ccccc23)n1 13.6%
Cc1ccc2c(c1)C(c1ccccc1)N(C(=O)Cc1ccc(F)cc1)CC(=O)N2 (stereo unspecified) 3.09%
O=C(c1cccn1-c1nnc(N2CCCC2)s1)N1CCN(c2ccc(Cl)cc2)CC1 18.7%
Cc1ccc(S(=O)(=O)Nc2nc3n(n2)C(c2ccc(F)cc2)C=C(c2ccccc2)N3)cc1 (stereo unspecified) -10.7%
CC1=C(C(=O)Nc2ccc(Cl)cc2)C(CC(C)C)n2nc(SCc3ccccc3C)nc2N1 (stereo unspecified) -5.67%
O=C(COc1ccc2ccccc2c1)NC1CC(=O)N(c2cccc(F)c2)C1 (stereo unspecified) -3.78%
COc1ccc(C2=NC(C)(C)N(CC(=O)Nc3cccc(C)c3)C2=O)cc1 2.49%
COc1ccc(Cn2c(C(=O)O)c(CNCCc3cc(OC)ccc3OC)c3ccc(C)cc32)cc1 5.77%
CC(=O)Nc1ccc(S(=O)(=O)NCC2CCC(C(=O)NCCN(CC(C)C)CC(C)C)CC2)cc1 (stereo unspecified) 1.62%
COc1ccccc1CNS(=O)(=O)c1cnc(N)nc1 -15.7%
Cc1nc2ccn(Cc3ccco3)c(=O)c2cc1C(=O)NCc1ccccc1 -5.58%
Cc1ccc(C)c(-n2c(N)c(C#N)c3nc4ccccc4nc32)c1 0.664%
COc1cc(C2C(=O)N(C3CCCCCC3)CC(=O)N2CCc2ccccc2)ccc1OC(C)C (stereo unspecified) -7.97%
COc1ccc(NC(=O)c2oc3ccc(S(=O)(=O)N4CCOCC4)cc3c2C)cc1 -27.6%
O=c1oc2ccc3ccccc3c2cc1-c1nnc(Nc2ccc(F)cc2)s1 8.46%
COc1ccc(C2c3c(n(C)c4ccccc34)C(=O)N2CC(=O)Nc2cccc(F)c2)cc1 (stereo unspecified) 6.25%
COc1cccc(CNc2cc(C)nc3nc(-c4ccc(C)cc4)nn23)c1 -1.46%
O=C(NCC(c1ccco1)S(=O)(=O)c1cccs1)c1ccccc1F (stereo unspecified) -2.96%
Cc1ccc(-n2nc3c(=O)n(C(C)C(=O)NCc4ccco4)nc(C)c3c2C)cc1 (stereo unspecified) -9.95%
Oc1c(C(c2ccccc2)N2CCC(O)CC2)sc2nc(-c3ccco3)nn12 (stereo unspecified) -7.93%
CCn1ccc2c(OCC(=O)Nc3ccccc3C(F)(F)F)cccc2c1=O -10.6%
C[C@@H](Oc1ccc2[nH]nc(C=Cc3cnn(CCO)c3)c2c1)c1c(Cl)cncc1Cl 2.52%
COc1ccc(NS(=O)(=O)c2ccc3[nH]c4c(c3c2)CCCC4)cc1OC 2.62%
CCCCOc1cccc(C(=O)N(Cc2ccc(C)o2)c2ccccn2)c1 -4.69%
CCOc1ccc(CCNC(=O)c2cnc3sc(N4CCCC4)nn3c2=O)cc1 -8.47%
CN(Cc1ccccc1)C(=O)c1nc(-c2ccc(Cl)cc2)n2c1CCCCC2 1.16%
CC1N=C2c3ccccc3N=C(SCC(=O)NCCc3ccccc3)N2C1=O (stereo unspecified) 5.93%
CCOC(=O)C(C)Sc1ccc2nnc(CCNS(=O)(=O)c3ccccc3)n2n1 (stereo unspecified) -7.47%
CC(=O)Nc1ccc(NC(=O)c2ccc3c(c2)N(Cc2cccc(Cl)c2)C(=O)c2ccccc2S3(=O)=O)cc1 2.77%
CCn1c(CN2CCCCC2)nc2cc(NC(=O)c3cc(OC)c(OC)c(OC)c3)ccc21 -9.53%
Cc1ccc(C)c(NC(=O)c2ccc(CN3CC(=O)N4CCCCC4C3=O)cc2)c1 (stereo unspecified) -0.7%
COc1ccccc1CNC(=O)C1CCN(S(=O)(=O)c2ccc3c(c2)CCCN3C(C)=O)CC1 -0.827%
CCc1ccc(CNC(=O)c2cc3c(=O)n(Cc4cccs4)ccc3nc2C)cc1 -1.1%
COc1cccc(N2CCN(C(=O)CCCCCn3c(=O)[nH]c4ccccc4c3=O)CC2)c1 -5.52%
CCc1nc2nc(C)c(NS(=O)(=O)c3ccc(C)cc3)c(=O)n2[nH]1 2.05%
COc1ccc(Cn2ccc3nc(C)c(C(=O)N4CCN(c5ccc(OC)cc5)CC4)cc3c2=O)cc1 -10.6%
CN(C)CCNC(=O)C(=O)NCC(c1cccnc1)N1CCN(c2ccc(F)cc2)CC1 (stereo unspecified) -16.4%
Cc1ccc(S(=O)(=O)N(C)Cc2nc(-c3ccccc3)oc2C)cc1 -2.96%
COc1ccc(C(=O)NCc2ccc3c(c2)CCN3C(=O)c2ccc(C)cc2)cc1 -22.7%
O=C(NCc1ccco1)c1ccc2c(c1)N(Cc1c(F)cccc1Cl)C(=O)c1ccccc1S2 -7.07%
O=C(Cn1cc(SCc2ccccc2F)c2ccccc21)N1CCCCC1 -3.19%
Cc1cc(C)cc(NC(=O)Cc2c(C(=O)O)c(C)cn2C)c1 -0.0625%
COc1ccc(OC)c(NC(=O)c2cc(C3CC3)nc3c2c(C)nn3-c2ccc(C)cc2)c1 -0.686%
COc1ccc(-c2c(C)nn3c(C(F)(F)F)cc(-c4ccccc4)nc23)cc1 5.59%
CCOc1ccc(N(CC)C(=O)c2nn(-c3ccc(OC)cc3)c(=O)c3c2c2ccccc2n3C)cc1 -1.44%
CCc1cc2c(cc(C(=O)OC)n2Cc2nc(-c3ccc(C)cc3)oc2C)s1 33.5%
O=C(CSc1nc2c([nH]c3ccccc32)c(=O)n1-c1cccc(C(F)(F)F)c1)N1CCc2ccccc21 -15.8%
Cc1ccc(CNC(=O)C2CCN(Cc3nc(-c4cccc(Br)c4)oc3C)CC2)cc1 -10.3%
CC(=O)c1cccc(NC(=O)C2CCN(S(=O)(=O)c3ccc4[nH]c(=O)ccc4c3)CC2)c1 -7.05%
COc1ccc(C(=O)Nc2nnc(SCc3cc(=O)n4cccc(C)c4n3)s2)cc1 5.41%
Cc1ccc(CNC(=O)CCCCCn2c(=O)c3sccc3n(CC(=O)Nc3c(C)cc(C)cc3C)c2=O)cc1 -2.48%
CCCOc1ccc(CNC(=O)CCCn2nc(C)c3sc4ccccc4c3c2=O)cc1 -1.8%
CCCSc1ncc(Cl)c(C(=O)Nc2c(C(=O)Nc3ccc(OC)cc3)oc3ccccc23)n1 -4.34%
CCc1ccc(C(=O)N2CCC(c3nc(-c4ccc(S(=O)(=O)N5CCCC5)cc4)no3)CC2)cc1 -11%

outcome, inactive:
CCn1cc(C(=O)N2CCN(c3cccc(C)c3C)CC2)c2cc(OC)c(OC)cc2c1=O
NS(=O)(=O)c1ccc(NC(=O)C2Cc3ccccc3N2C(=O)c2ccccc2)cc1 (stereo unspecified)
COc1ccc(OC)c(CCNC(=O)Cn2ncc3c([nH]c4ccccc43)c2=O)c1
COC(=O)c1nnn(CC(=O)NC(=O)Nc2c(C)cccc2C)c1C(=O)OC
COc1ccc(N2CC(NC(=O)C(c3ccccc3)c3ccccc3)CC2=O)cc1OC (stereo unspecified)
COCCCNC(=O)CCC(=O)NNc1nc2ccccc2c2nc(C)nn12
COc1ccc(-c2nc(SCC(=O)Nc3c(C)cc(C)cc3C)n[nH]2)cc1
COc1ccc(-c2cc3nc(C)c(CCC(=O)NC4CCCCC4)c(C)n3n2)c(OC)c1
COc1cc(C2Nc3c(C)cc(C)cc3-c3cc(C)nn32)cc(OC)c1O (stereo unspecified)
CN(C)C(=O)c1c(NC(=O)c2ccccc2F)sc2c1CCCC2
Cc1ccc(N2CC(C)Cn3c2nc2c3c(=O)n(Cc3cccc(Cl)c3)c(=O)n2C)cc1 (stereo unspecified)
CCCc1cc(=O)[nH]c2nnc(SCC)n12
Cc1ccc(Cl)cc1N1CCN(CCCNC(=O)c2ccc3nc(N4CCCCC4)sc3c2)CC1
COC(=O)CC1Oc2ccc(Cl)cc2-n2cc(-c3ccccc3)nc21 (stereo unspecified)
O=C(NC1(C(F)(F)F)NC(=O)N(CCc2ccccc2)C1=O)c1ccc(Cl)cc1 (stereo unspecified)
CCC(C(=O)NC1CCC(C)CC1)n1nc(C)c2sc3ccccc3c2c1=O (stereo unspecified)
CCOc1ccccc1NC(=O)Cn1nnc(C(=O)NCc2ccc(F)cc2)c1N
Cc1cccc(-n2c(=O)c3ccccc3n(Cc3ccccc3)c2=O)c1
Cc1ccc(-n2nc3ccc(NC(=O)COc4ccccc4)cc3n2)cc1Cl
CCOc1ccc(-n2c(=O)c3c4c(sc3n(CC(=O)NC(C)CC)c2=O)CCCC4)cc1 (stereo unspecified)
COc1cc(Cl)c(C)cc1NC(=O)Cn1ncc2c1-c1cc(C)ccc1OC2
Cc1cccc(CNC(=O)c2ccc3oc(=O)n(Cc4ccccc4)c3c2)c1
O=S(=O)(c1ccc(Br)cc1)c1nnn2c1nc(NCc1ccc3c(c1)OCO3)c1sccc12
